Data as given in the supplement of paper PMC7826260.
The list shows a part of the results. The data describe in vitro nicking of single-stranded DNA by Rep domains (3 µM enzyme, 1 h, 37 °C); shown is the middle of each 90-letter strand. The score is log2 (uncut reads / reads without enzyme); more negative means more cut, near 0 not cut, and no call is made. Counts are relative to all reads; values above 0 arise when much of the pool is cut.

Key:
Experiment in all cases: uncleaved DNA left, log2 of reads against the no-enzyme library (log2 ratio); higher = less cleavage (more negative = more Rep cleavage of the k-mer); sequences stand for … in CTCGTCCG…ACCGGAGA
[1] = system: T1, Rep nickase domain of Muscovy duck circovirus
T1 sequence (protein, residues 1-111, tag omitted): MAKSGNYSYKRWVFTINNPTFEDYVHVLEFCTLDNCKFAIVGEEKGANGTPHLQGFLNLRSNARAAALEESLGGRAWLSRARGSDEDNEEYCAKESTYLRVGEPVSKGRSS
Method: (§1)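 A pool of 90-nt single-stranded DNAs with seven random bases just before the constant AC of the nick site (name = the seven bases) was cut by 3 µM recombinant His6-SUMO-tagged Rep nickase domain (300 nM DNA, 50 mM HEPES pH 8.0, 50 mM NaCl, 1 mM MnCl2, 1 h, 37 °C, three replicates). Uncut DNA was amplified and sequenced.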

[2] = system: T2, Rep nickase domain of banana bunchy top virus
T2 sequence (protein, residues 1-94, tag omitted): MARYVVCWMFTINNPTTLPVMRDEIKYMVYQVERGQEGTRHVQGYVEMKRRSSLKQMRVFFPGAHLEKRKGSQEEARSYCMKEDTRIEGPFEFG
Method: as §1

[3] = system: T3, Rep nickase domain of cabbage leaf curl virus
T3 sequence (protein, residues 1-116, tag omitted): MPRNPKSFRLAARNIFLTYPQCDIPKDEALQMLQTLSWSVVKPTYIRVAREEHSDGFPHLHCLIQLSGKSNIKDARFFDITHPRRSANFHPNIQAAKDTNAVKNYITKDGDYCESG
Method: as §1

[4] = system: T4, Rep nickase domain of chickpea chlorotic dwarf virus
T4 sequence (protein, residues 1-124, tag omitted): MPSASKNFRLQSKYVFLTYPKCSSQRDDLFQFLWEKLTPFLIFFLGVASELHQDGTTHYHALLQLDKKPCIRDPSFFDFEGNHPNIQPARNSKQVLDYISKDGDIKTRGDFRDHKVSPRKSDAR
Method: as §1

[5] = system: T5, Rep nickase domain of faba bean necrotic yellows virus
T5 sequence (protein, residues 1-98, tag omitted): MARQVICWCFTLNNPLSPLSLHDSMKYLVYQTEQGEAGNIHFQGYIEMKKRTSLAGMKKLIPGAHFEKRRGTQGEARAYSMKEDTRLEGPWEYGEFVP
Method: as §1

[6] = system: T6, Rep nickase domain of maize striate mosaic virus
T6 sequence (protein, residues 1-117, tag omitted): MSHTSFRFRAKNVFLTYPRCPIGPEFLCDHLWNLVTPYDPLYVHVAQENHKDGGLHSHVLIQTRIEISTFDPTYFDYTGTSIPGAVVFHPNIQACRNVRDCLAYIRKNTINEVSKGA
Method: as §1

[7] = system: T7, Rep nickase domain of porcine circovirus 2
T7 sequence (protein, residues 2-116, tag omitted): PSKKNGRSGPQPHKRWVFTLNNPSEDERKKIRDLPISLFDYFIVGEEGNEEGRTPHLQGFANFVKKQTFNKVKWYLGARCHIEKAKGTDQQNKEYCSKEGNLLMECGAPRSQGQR
Method: as §1

[8] = system: T8, Rep nickase domain of tomato golden mosaic virus
T8 sequence (protein, residues 1-124, tag omitted): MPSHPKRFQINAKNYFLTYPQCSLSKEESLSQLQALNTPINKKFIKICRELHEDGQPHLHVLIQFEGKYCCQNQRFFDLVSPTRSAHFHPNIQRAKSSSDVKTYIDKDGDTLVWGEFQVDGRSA
Method: as §1

[9] = system: T9, Rep nickase domain of tomato yellow leaf curl virus
T9 sequence (protein, residues 1-136, tag omitted): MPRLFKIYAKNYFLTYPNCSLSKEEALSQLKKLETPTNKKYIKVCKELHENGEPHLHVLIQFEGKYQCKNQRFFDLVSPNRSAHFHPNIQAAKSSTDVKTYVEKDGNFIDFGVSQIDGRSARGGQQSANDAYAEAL
Method: as §1

[10] = system: T10, Rep nickase domain of wheat dwarf virus
T10 sequence (protein, residues 1-137, tag omitted): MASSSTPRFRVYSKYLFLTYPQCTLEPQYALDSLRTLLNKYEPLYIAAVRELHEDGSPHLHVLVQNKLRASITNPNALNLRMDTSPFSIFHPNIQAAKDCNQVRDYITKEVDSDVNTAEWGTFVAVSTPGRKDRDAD
Method: as §1

Row | Sequence | uncleaved DNA left (log2) [1] | uncleaved DNA left (log2) [2] | uncleaved DNA left (log2) [3] | uncleaved DNA left (log2) [4] | uncleaved DNA left (log2) [5] | uncleaved DNA left (log2) [6] | uncleaved DNA left (log2) [7] | uncleaved DNA left (log2) [8] | uncleaved DNA left (log2) [9] | uncleaved DNA left (log2) [10]
1 | CCCAGAT | 0.0714 | 0.0835 | 0.0374 | 0.857 | -0.0461 | 1.21 | -0.102 | 0.0119 | -0.109 | 0.0387
2 | CAAACCT | -0.0337 | -0.0194 | -2.45 | -2.73 | 0.0451 | -1.02 | -1.16 | -0.432 | 0.0536 | -0.628
3 | ACGCACA | 0.0114 | -0.0353 | -0.0615 | -0.932 | 0.0773 | -0.574 | -0.0629 | 0.0372 | 0.0176 | -0.00262
4 | GTTGTAG | 0.131 | 0.174 | 0.0429 | 0.281 | 0.0293 | -0.0413 | 0.152 | 0.246 | 0.0979 | 0.0627
5 | AACTATG | -0.0233 | 0.0285 | -0.395 | -0.369 | 0.155 | -0.847 | 0.0115 | -0.00361 | 0.0338 | 0.119
6 | TACATAC | -0.0294 | -0.111 | -0.153 | -1.08 | -0.0974 | -0.837 | 0.00184 | -0.103 | -0.00746 | -0.0227
7 | GTCCCCC | -0.0446 | 0.109 | 0.259 | 0.752 | -0.0122 | 1.53 | -0.0932 | 0.0225 | -0.0116 | 0.109
8 | GCGGTGA | -0.0067 | -0.172 | 0.136 | 0.602 | -0.101 | 0.675 | 0.0874 | -0.0921 | -0.134 | 0.012
9 | GGAAACA | -0.0269 | -0.0165 | 0.728 | 1.54 | 0.0231 | 1.98 | 0.115 | 0.0858 | 0.00951 | 0.0266
10 | CGCCGTG | -0.224 | 0.0141 | -0.274 | -0.456 | -0.0287 | -0.568 | 0.00946 | -0.142 | 0.0492 | -0.161
11 | CGTGCAC | -0.149 | -0.126 | -0.19 | 0.0877 | -0.22 | -0.409 | -0.0895 | -0.0711 | -0.0599 | -0.0285
12 | CAGATTG | 0.185 | 0.106 | 0.0548 | 0.559 | 0.0429 | 0.388 | 0.188 | 0.196 | -0.0339 | 0.094
13 | AAGTGTA | -0.11 | -0.247 | 0.0239 | -0.356 | -0.0579 | 0.616 | -2.68 | 0.00236 | -0.0571 | -0.0845
14 | TCTCAAG | 0.179 | -0.0289 | -0.588 | -0.9 | 0.131 | -1.27 | 0.231 | 0.116 | 0.00137 | -0.177
15 | AAGAAGA | 0.0635 | 0.0904 | 0.179 | 0.39 | 0.146 | -0.355 | 0.0448 | 0.0788 | -0.00476 | 0.0843
16 | GTCGAAC | 0.0521 | -0.039 | 0.262 | 0.799 | -0.219 | 1.37 | -0.0818 | -0.065 | -0.124 | -0.0328
17 | GTACCTC | -0.0348 | -0.00316 | 0.298 | 0.625 | -0.0857 | 1.33 | -0.0243 | -0.0284 | 0.00706 | 0.0109
18 | CGTACCG | 0.00423 | -0.032 | -0.724 | -0.808 | 0.0291 | -1.01 | 0.0993 | -0.0128 | 0.00754 | -0.0886
19 | CGTTGCA | 0.0189 | -0.00527 | -0.776 | -0.516 | 0.0635 | -1.02 | 0.0786 | -0.0557 | 0.118 | -0.146
20 | TATTACT | -4.35 | -4.39 | -4.06 | -4.26 | -3.69 | -2.19 | -4.71 | -3.76 | 0.0113 | -3.68
21 | ACGCTAT | -0.0204 | -0.202 | -0.289 | -0.771 | -0.00992 | -0.512 | 0.144 | 0.0121 | -0.00422 | -0.00546
22 | CCTAAAT | 0.167 | 0.0511 | 0.12 | -0.455 | 0.109 | -0.352 | -0.0563 | 0.0322 | -0.0273 | 0.00946
23 | CGACGTC | 0.029 | -0.0879 | 0.0204 | 0.44 | -0.0779 | 1.19 | 0.00621 | -0.161 | -0.21 | -0.0375
24 | CATATCT | -0.0944 | -1.74 | -0.399 | -2.85 | -0.036 | -0.905 | -1.46 | 0.0298 | 0.059 | 0.0252
25 | AGATCGA | 0.0158 | -0.0437 | -0.232 | -0.208 | -0.116 | -0.99 | 0.0291 | -0.177 | -0.0945 | 0.000948
26 | ATCTACT | -3.63 | -1.96 | -0.742 | -3.06 | -0.288 | -0.718 | -3.62 | -0.151 | -0.0461 | -0.261
27 | ACGCCGT | -0.0797 | -0.194 | -0.507 | -0.821 | -0.2 | -1.12 | -0.00443 | -0.00213 | -0.154 | -0.27
28 | TGTCAGA | 0.00501 | 0.0462 | 0.133 | 0.173 | 0.096 | -0.32 | 0.112 | 0.0603 | 0.185 | 0.0587
29 | CATCCGG | 0.0899 | 0.109 | 0.38 | 1.17 | 0.0288 | 1.06 | 0.118 | 0.0919 | 0.0176 | 0.0444
